Changes are numbered by the printed parent chain; changes in the protein carry UniProt numbers. This is one part of the list.
T1: RBFOX1 RRM (Homo sapiens, UniProt Q9NWB1 109-208)
T1 sequence: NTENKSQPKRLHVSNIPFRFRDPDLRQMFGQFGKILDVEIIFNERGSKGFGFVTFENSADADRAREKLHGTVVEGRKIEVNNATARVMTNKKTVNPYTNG

B1: CUGCCCU (DNA:RNA)
RNA: GGGAGACCGGAAUUCAGAUUGUCCCUGCCCUUUAAAUCCCGUCGUAGCCACCA
DNA 1: CAATCTGAATTCCGGTCTCCC
DNA 2: TGGTGGCTACGACGGGATT
B2: UCUGAGA (DNA:RNA)
RNA: GGGAGACCGGAAUUCAGAUUGUCCUCUGAGAUUAAAUCCCGUCGUAGCCACCA
DNA 1: CAATCTGAATTCCGGTCTCCC
DNA 2: TGGTGGCTACGACGGGATT
B3: GUGAAAC (DNA:RNA)
RNA: B1 RNA with C25G, C28A, C29A, C30A, U31C
DNA 1: CAATCTGAATTCCGGTCTCCC
DNA 2: TGGTGGCTACGACGGGATT
B4: CCCGCAA (DNA:RNA)
RNA: B2 RNA with U25C, U27C, A29C, G30A
DNA 1: CAATCTGAATTCCGGTCTCCC
DNA 2: TGGTGGCTACGACGGGATT
B5: CCACCGU (DNA:RNA)
RNA: B1 RNA with U26C, G27A, C30G
DNA 1: CAATCTGAATTCCGGTCTCCC
DNA 2: TGGTGGCTACGACGGGATT
B6: GCACUCU (DNA:RNA)
RNA: B1 RNA with C25G, U26C, G27A, C29U
DNA 1: CAATCTGAATTCCGGTCTCCC
DNA 2: TGGTGGCTACGACGGGATT
B7: CGCACUG (DNA:RNA)
RNA: B1 RNA with U26G, G27C, C28A, C30U, U31G
DNA 1: CAATCTGAATTCCGGTCTCCC
DNA 2: TGGTGGCTACGACGGGATT
B8: CUCUGUU (DNA:RNA)
RNA: B1 RNA with G27C, C28U, C29G, C30U
DNA 1: CAATCTGAATTCCGGTCTCCC
DNA 2: TGGTGGCTACGACGGGATT
B9: GUUCGUG (DNA:RNA)
RNA: B1 RNA with C25G, G27U, C29G, C30U, U31G
DNA 1: CAATCTGAATTCCGGTCTCCC
DNA 2: TGGTGGCTACGACGGGATT
B10: AUGUAAG (DNA:RNA)
RNA: B1 RNA with C25A, C28U, C29A, C30A, U31G
DNA 1: CAATCTGAATTCCGGTCTCCC
DNA 2: TGGTGGCTACGACGGGATT
B11: CCAGUCC (DNA:RNA)
RNA: B1 RNA with U26C, G27A, C28G, C29U, U31C
DNA 1: CAATCTGAATTCCGGTCTCCC
DNA 2: TGGTGGCTACGACGGGATT
B12: UGGUCCG (DNA:RNA)
RNA: B1 RNA with C25U, U26G, C28U, U31G
DNA 1: CAATCTGAATTCCGGTCTCCC
DNA 2: TGGTGGCTACGACGGGATT
B13: GGUUGAG (DNA:RNA)
RNA: B2 RNA with U25G, C26G, G28U, A29G, G30A, A31G
DNA 1: CAATCTGAATTCCGGTCTCCC
DNA 2: TGGTGGCTACGACGGGATT
B14: CAGAGGC (DNA:RNA)
RNA: B1 RNA with U26A, C28A, C29G, C30G, U31C
DNA 1: CAATCTGAATTCCGGTCTCCC
DNA 2: TGGTGGCTACGACGGGATT
B15: CUUUGGA (DNA:RNA)
RNA: B2 RNA with U25C, C26U, G28U, A29G
DNA 1: CAATCTGAATTCCGGTCTCCC
DNA 2: TGGTGGCTACGACGGGATT
B16: AACUUUC (DNA:RNA)
RNA: GGGAGACCGGAAUUCAGAUUGUCCAACUUUCUUAAAUCCCGUCGUAGCCACCA
DNA 1: CAATCTGAATTCCGGTCTCCC
DNA 2: TGGTGGCTACGACGGGATT
B17: CAUGAUC (DNA:RNA)
RNA: B16 RNA with A25C, C27U, U28G, U29A
DNA 1: CAATCTGAATTCCGGTCTCCC
DNA 2: TGGTGGCTACGACGGGATT
B18: UACUGUG (DNA:RNA)
RNA: B16 RNA with A25U, U29G, C31G
DNA 1: CAATCTGAATTCCGGTCTCCC
DNA 2: TGGTGGCTACGACGGGATT
B19: AAUCCCU (DNA:RNA)
RNA: B1 RNA with C25A, U26A, G27U
DNA 1: CAATCTGAATTCCGGTCTCCC
DNA 2: TGGTGGCTACGACGGGATT
B20: CGUGCAG (DNA:RNA)
RNA: B1 RNA with U26G, G27U, C28G, C30A, U31G
DNA 1: CAATCTGAATTCCGGTCTCCC
DNA 2: TGGTGGCTACGACGGGATT
B21: ACUUUAC (DNA:RNA)
RNA: B16 RNA with A26C, C27U, U30A
DNA 1: CAATCTGAATTCCGGTCTCCC
DNA 2: TGGTGGCTACGACGGGATT
B22: UGGAAGC (DNA:RNA)
RNA: B2 RNA with C26G, U27G, G28A, A31C
DNA 1: CAATCTGAATTCCGGTCTCCC
DNA 2: TGGTGGCTACGACGGGATT
B23: CGCGGUU (DNA:RNA)
RNA: B16 RNA with A25C, A26G, U28G, U29G, C31U
DNA 1: CAATCTGAATTCCGGTCTCCC
DNA 2: TGGTGGCTACGACGGGATT
B24: AGAAAUA (DNA:RNA)
RNA: B16 RNA with A26G, C27A, U28A, U29A, C31A
DNA 1: CAATCTGAATTCCGGTCTCCC
DNA 2: TGGTGGCTACGACGGGATT
B25: UUCAGAG (DNA:RNA)
RNA: B16 RNA with A25U, A26U, U28A, U29G, U30A, C31G
DNA 1: CAATCTGAATTCCGGTCTCCC
DNA 2: TGGTGGCTACGACGGGATT
B26: AGCGCGU (DNA:RNA)
RNA: B16 RNA with A26G, U28G, U29C, U30G, C31U
DNA 1: CAATCTGAATTCCGGTCTCCC
DNA 2: TGGTGGCTACGACGGGATT
B27: GCCCGCA (DNA:RNA)
RNA: B1 RNA with C25G, U26C, G27C, C29G, U31A
DNA 1: CAATCTGAATTCCGGTCTCCC
DNA 2: TGGTGGCTACGACGGGATT
B28: ACGUUCG (DNA:RNA)
RNA: B16 RNA with A26C, C27G, U30C, C31G
DNA 1: CAATCTGAATTCCGGTCTCCC
DNA 2: TGGTGGCTACGACGGGATT
B29: CUUCAGA (DNA:RNA)
RNA: B2 RNA with U25C, C26U, G28C
DNA 1: CAATCTGAATTCCGGTCTCCC
DNA 2: TGGTGGCTACGACGGGATT
B30: ACACUAG (DNA:RNA)
RNA: B16 RNA with A26C, C27A, U28C, U30A, C31G
DNA 1: CAATCTGAATTCCGGTCTCCC
DNA 2: TGGTGGCTACGACGGGATT
B31: GUGGUAC (DNA:RNA)
RNA: B16 RNA with A25G, A26U, C27G, U28G, U30A
DNA 1: CAATCTGAATTCCGGTCTCCC
DNA 2: TGGTGGCTACGACGGGATT

target: T1, RBFOX1 RRM; experiment: EMSA; HiTS-Eq, 1 nM pool, 10 min; buffer printed only for the single-RNA assays: 10 mM Tris pH 7.5, 150 mM NaCl, 3.4 mM EDTA, 0.001% NP-40, 30 C; details: tags: His6 N-terminal (pET28a); label: 5' 32P
How it was run: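 Purified RbFox RRM, wild type or mutant, was incubated for 10 min in 50 µL with 1 nM of a 5′-radiolabelled RNA pool carrying 7 randomized nucleotides, whose flanks were annealed to DNA oligonucleotides, over a series of increasing protein concentrations. Unbound RNA was resolved on 8% native PAGE, cut out, reverse-transcribed, barcoded by PCR and sequenced on an Illumina HiSeq 2500. Relative association constants were derived from changes in read counts for each RNA species versus the control reaction and normalised to the cognate motif.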

**Q.** With B1 as the binder, how does the binding signal read?
**A.** 0.00803 KA relative to UGCAUGU

**Q.** With B2 as the binder, how does the binding signal read?
**A.** 0.0109 KA relative to UGCAUGU

**Q.** Which binding signal does the source give for B3 here?
**A.** 0.0109 KA relative to UGCAUGU

**Q.** How did the binding signal turn out when B4 was run?
**A.** 0.00264 KA relative to UGCAUGU

**Q.** With B5 as the binder, how does the binding signal read?
**A.** 0.0012 KA relative to UGCAUGU

**Q.** With B6 as the binder, how does the binding signal read?
**A.** 0.00779 KA relative to UGCAUGU

**Q.** Which binding signal does the source give for B7 here?
**A.** 0.0157 KA relative to UGCAUGU

**Q.** With B8 as the binder, how does the binding signal read?
**A.** 0.0147 KA relative to UGCAUGU

**Q.** How did the binding signal turn out when B9 was run?
**A.** 0.0268 KA relative to UGCAUGU

**Q.** With B10 as the binder, how does the binding signal read?
**A.** 0.0148 KA relative to UGCAUGU

**Q.** B11 was tested. Which binding signal did it give?
**A.** 0.00513 KA relative to UGCAUGU

**Q.** B12 was tested. Which binding signal did it give?
**A.** 0.017 KA relative to UGCAUGU

**Q.** Which binding signal does the source give for B13 here?
**A.** 0.0204 KA relative to UGCAUGU

**Q.** For B14, which binding signal is on record?
**A.** 0.00841 KA relative to UGCAUGU

**Q.** How did the binding signal turn out when B15 was run?
**A.** 0.00778 KA relative to UGCAUGU

**Q.** How did the binding signal turn out when B16 was run?
**A.** 0.00552 KA relative to UGCAUGU

**Q.** Which binding signal does the source give for B17 here?
**A.** 0.00846 KA relative to UGCAUGU

**Q.** For B18, which binding signal is on record?
**A.** 0.0225 KA relative to UGCAUGU

**Q.** Which binding signal does the source give for B19 here?
**A.** 0.000403 KA relative to UGCAUGU

**Q.** B20 was tested. Which binding signal did it give?
**A.** 0.0123 KA relative to UGCAUGU

**Q.** How did the binding signal turn out when B21 was run?
**A.** 0.00258 KA relative to UGCAUGU

**Q.** B22 was tested. Which binding signal did it give?
**A.** 0.0215 KA relative to UGCAUGU

**Q.** Which binding signal does the source give for B23 here?
**A.** 0.0152 KA relative to UGCAUGU

**Q.** Which binding signal does the source give for B24 here?
**A.** 0.00119 KA relative to UGCAUGU

**Q.** With B25 as the binder, how does the binding signal read?
**A.** 0.013 KA relative to UGCAUGU

**Q.** Which binding signal does the source give for B26 here?
**A.** 0.0153 KA relative to UGCAUGU

**Q.** Which binding signal does the source give for B27 here?
**A.** 0.0133 KA relative to UGCAUGU

**Q.** For B28, which binding signal is on record?
**A.** 0.0141 KA relative to UGCAUGU

**Q.** With B29 as the binder, how does the binding signal read?
**A.** 0.00958 KA relative to UGCAUGU

**Q.** With B30 as the binder, how does the binding signal read?
**A.** 0.00182 KA relative to UGCAUGU

**Q.** With B31 as the binder, how does the binding signal read?
**A.** 0.0175 KA relative to UGCAUGU

— article PMC9911399, “Two distinct binding modes provide the RNA-binding protein RbFox with extraordinary sequence specificity”
